Measurements published in the supplement of paper PMC2702839.
Where a name gives a salt, the structure may show the parent alone. The list shows a part of the results.

What follows are compounds tested on Schistosoma mansoni schistosomula (assay: phenotypic hit in primary schistosomula screen (any phenotype vs DMSO control) (binary (1 = hit, 0 = no phenotype)); higher = active (phenotype induced)). Conditions: 1 µM; time (d): 7.

Compound	phenotypic hit
COc1ccc(-c2cc(=O)c3c(O)cc(O)c(-c4cc(-c5cc(=O)c6c(O)cc(O)cc6o5)ccc4OC)c3o2)cc1 [isoginkgetin]	inactive: 0
CC(=O)Nc1ccccc1 [acetanilide]	inactive: 0
COC(=O)[C@H]1[C@H]2C[C@H]3c4[nH]c5ccccc5c4CCN3C[C@@H]2CC[C@@H]1O [corynanthine]	inactive: 0
CSc1ccc2c(c1)C(N1CCN(C)CC1)Cc1ccccc1S2 (centres undefined) [Methiothepin mesylate]	inactive: 0
NC(=O)c1cc[n+](CC2=C(C(=O)O)N3C(=O)[C@@H](NC(=O)[C@@H](c4ccccc4)S(=O)(=O)[O-])[C@H]3SC2)cc1 [cefsulodin sodium]	inactive: 0
CC1(C)S[C@@H]2[C@H](NC(=O)[C@H](NC(=O)N3CCNC3=O)c3ccccc3)C(=O)N2[C@H]1C(=O)O [azlocillin sodium]	inactive: 0
COC(=O)Nc1nc2cc(C(=O)c3ccccc3)ccc2[nH]1 [mebendazole]	inactive: 0
CCCCCCc1ccc(O)cc1O.Nc1c2ccccc2nc2ccccc12 [acrisorcin]	inactive: 0
CC1(C)CC[C@]2(C)CC[C@]3(C)C(=CC[C@@H]4[C@@]5(C)CC[C@H](O)C(C)(C)[C@@H]5CC[C@]43C)[C@@H]2C1 [beta-amyrin]	inactive: 0
Cc1onc(-c2c(Cl)cccc2Cl)c1C(=O)N[C@@H]1C(=O)N2[C@@H]1SC(C)(C)[C@@H]2C(=O)O [dicloxacillin sodium]	inactive: 0
CN1C(C)(C)CCCC1(C)C [pempidine tartrate]	inactive: 0
Cc1cc(O)c(C=O)c2c1C(=O)Oc1c(C)c(O)c3c(c1O2)C(O)OC3=O (centres undefined) [norstictic acid]	inactive: 0
CC[N+](C)(C)Cc1ccccc1Br [bretylium tosylate]	inactive: 0
C[N+](C)(C)CCCCCC[N+](C)(C)C [Hexamethonium dichloride]	inactive: 0
CN(C)/N=N/c1[nH]cnc1C(N)=O [dacarbazine]	inactive: 0
O=C(O)c1cccnc1Nc1cccc(C(F)(F)F)c1 [niflumic acid]	inactive: 0
COc1ccc(C(Cl)=C(c2ccc(OC)cc2)c2ccc(OC)cc2)cc1 [chlorotrianisene]	inactive: 0
Cc1oncc1C(=O)Nc1ccc(C(F)(F)F)cc1 [lefunamide]	inactive: 0
CSCC[C@H](NC=O)C(=O)N[C@@H](CC(C)C)C(=O)N[C@@H](Cc1ccccc1)C(=O)O [n-formylmethionyl-leucylphenylalanine]	inactive: 0
